Measurements reported in patent publication US5478816A, “Liquid vitamin formulations containing vitamin D esters” (Bristol-Myers Squibb Company, priority 1993, dated 1995).
Several values for one entry are separate records, joined by “and”; a condition that tells them apart may be missing. Equal entries are not always repeated. This continues a long series; more values of the same kind are listed elsewhere.

Test: Short-term stability of vitamin D3 and vitamin D3 palmitate in liquid vitamin formulations at 40° C. (HPLC assay)
Type: physicochemical
Experimental: In addition to the above, the vitamin formulation contains flavorants, stabilizer of vitamins, and about 1.0% polysorbate 80 as surfactant. As appreciated by the skilled artisan, appropriate overages of vitamins are included in order to assure meeting the label claims. The example composition contains 1.86:1 ratio by weight of glycerine to water. The pH is 5.0 which is adjusted by using an appropriate ratio of ascorbic acid to sodium ascorbate.
Vitamin D was analyzed by a HPLC assay as described by Matthew G. Sliva, et al., "Reversed-Phase Liquid Chromatographic Determination of Vitamin D in Infant Formulas and Enteral Nutritionals," J Assoc. Off. Anal. Chem., 75, 566, 1992, except that saponification conditions of 70° C. for 40 minutes were employed.
Stability of vitamins D3 and D3 palmitate were compared in various vitamin formulations containing different amounts of water and glycerin and at different pHs. The other ingredients and method of pH adjustment were as described in Example 1. The results are in Tables 2-5. Each batch number represents a different liquid vitamin formulation. The amount of glycerin varied between 650 and 850 mg/ml, depending upon the amount of water. "Vit" represents vitamin, "Desc." represents description,"Vit D3" represents vitamin D3, and "Vit D3P" or "D3 P" represents vitamin D3 palmitate. Table 1 lists the half-life (T50) values, i.e., time to degrade to 50% of the starting concentration of vitamins D3 and D3 palmitate at 40° C., These T50 values were calculated by fitting the data to first order degradation rate.

[1] = pH 5.0, 390 mg/ml water, age 16 weeks, Batch #13 (D3), #14 (D3 P)
[2] = pH 5.6, 252 mg/ml water, age 0 weeks, Batch #17 (D3), #18 (D3 P)
[3] = pH 5.6, 252 mg/ml water, age 1 week, Batch #17 (D3), #18 (D3 P)
[4] = pH 5.6, 252 mg/ml water, age 2 weeks, Batch #17 (D3), #18 (D3 P)
[5] = pH 5.6, 252 mg/ml water, age 4 weeks, Batch #17 (D3), #18 (D3 P)
[6] = pH 5.6, 252 mg/ml water, age 8 weeks, Batch #17 (D3), #18 (D3 P)
[7] = pH 5.6, 252 mg/ml water, age 12 weeks, Batch #17 (D3), #18 (D3 P)
[8] = pH 5.6, 252 mg/ml water, age 16 weeks, Batch #17 (D3), #18 (D3 P)
[9] = pH 5.6, 390 mg/ml water, age 0 weeks, Batch #19 (D3), #20 (D3 P)
[10] = pH 5.6, 390 mg/ml water, age 1 week, Batch #19 (D3), #20 (D3 P)
[11] = pH 5.6, 390 mg/ml water, age 2 weeks, Batch #19 (D3), #20 (D3 P)
[12] = pH 5.6, 390 mg/ml water, age 4 weeks, Batch #19 (D3), #20 (D3 P)
[13] = pH 5.6, 390 mg/ml water, age 8 weeks, Batch #19 (D3), #20 (D3 P)
[14] = pH 5.6, 390 mg/ml water, age 12 weeks, Batch #19 (D3), #20 (D3 P)
[15] = pH 5.6, 390 mg/ml water, age 16 weeks, Batch #19 (D3), #20 (D3 P)

| SMILES | Vitamin D content on storage [1] | Vitamin D content on storage [2] | Vitamin D content on storage [3] | Vitamin D content on storage [4] | Vitamin D content on storage [5] | Vitamin D content on storage [6] | Vitamin D content on storage [7] | Vitamin D content on storage [8] | Vitamin D content on storage [9] | Vitamin D content on storage [10] | Vitamin D content on storage [11] | Vitamin D content on storage [12] | Vitamin D content on storage [13] | Vitamin D content on storage [14] | Vitamin D content on storage [15] | Vitamin D content on storage (pH 5.0, 390 mg/ml water, age 12 weeks, Batch #13 (D3), #14 (D3 P)) | Vitamin D content on storage (pH 5.0, 435 mg/ml water, age 8 weeks, Batch #15 (D3), #16 (D3 P)) | Vitamin D content on storage (pH 5.0, 435 mg/ml water, age 12 weeks, Batch #15 (D3), #16 (D3 P)) |
| --- | --- | --- | --- | --- | --- | --- | --- | --- | --- | --- | --- | --- | --- | --- | --- | --- | --- | --- |
| C=C1CC[C@H](OC(=O)CCCCCCCCCCCCCCC)C/C1=C/C=C1\CCC[C@]2(C)[C@@H]([C@H](C)CCCC(C)C)CC[C@@H]12 [Vitamin D3 P, vitamin D3 palmitate] | 492 IU/ml | 418 IU/ml and 421 IU/ml | 385 IU/ml and 400 IU/ml | 371 IU/ml | 338 IU/ml and 330 IU/ml | 286 IU/ml and 287 IU/ml | 232 IU/ml and 237 IU/ml | 214 IU/ml and 212 IU/ml | 424 IU/ml and 416 IU/ml | 396 IU/ml and 395 IU/ml | 396 IU/ml and 400 IU/ml | 374 IU/ml and 370 IU/ml | 341 IU/ml | 295 IU/ml and 302 IU/ml | 279 IU/ml and 276 IU/ml |  |  |  |
| C=C1CC[C@H](O)C/C1=C/C=C1\CCC[C@]2(C)[C@@H]([C@H](C)CCCC(C)C)CC[C@@H]12 [Vitamin D3, vitamin D3] | 60.8 IU/ml and 84.3 IU/ml | 439 IU/ml and 438 IU/ml | 441 IU/ml and 442 IU/ml | 411 IU/ml and 396 IU/ml | 390 IU/ml and 394 IU/ml | 333 IU/ml and 354 IU/ml | 310 IU/ml and 300 IU/ml | 245 IU/ml and 265 IU/ml | 450 IU/ml and 454 IU/ml | 420 IU/ml and 438 IU/ml | 369 IU/ml and 377 IU/ml | 317 IU/ml and 307 IU/ml | 193 IU/ml and 184 IU/ml | 110 IU/ml and 114 IU/ml | 87.5 IU/ml and 82.5 IU/ml | 100 IU/ml and 107 IU/ml | 170 IU/ml | 107 IU/ml and 103 IU/ml |
